Measured values as given in the supplement of paper PMC10670038.
Structures can show the parent of a compound that is named as a salt. ± gives the standard deviation of the averaged measurements. Whole data set: some 2,000 compounds, median “relative cell viability vs DMSO, compound + 0.2 uM CuET” near 1, cut for the lowest 2% near 0.25. This is one part of the list.

These molecules were tested on TE10 (assay: relative cell viability vs DMSO, compound + 0.2 uM CuET (fraction); TE10 is an esophageal squamous carcinoma line; higher = less cytotoxic). Conditions: 2 µM; co-treatment: CuET (bis(diethyldithiocarbamate)copper) 0.2 uM; 48 h.
Protocol: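 TE10 ESCC cells (1,000/well, 384-well plates) were treated with Selleck bioactive library compounds at 2 uM combined with 0.2 uM CuET (copper diethyldithiocarbamate) for 48 h. Viability was read by CellTiter-Glo and expressed relative to DMSO wells. Two technical replicates (A, B).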
COc1cc2ncnc(Nc3ccc(F)c(Cl)c3)c2cc1OCCCN1CCOCC1 [Gefitinib (ZD1839)] was tested, and the relative cell viability was 1.21 ± 0.097. CCOc1ccc(NC(C)=O)cc1 [Phenacetin] gave a relative cell viability of 1.1 ± 0.083. Molecule CN1CCC[C@@H]1CCO[C@](C)(c1ccccc1)c1ccc(Cl)cc1 [Clemastine Fumarate] has a relative cell viability of 0.944 ± 0.13. In the case of CC(C)[C@H](N)C(=O)OCC(CO)OCn1cnc2c(=O)[nH]c(N)nc21 (some centres undefined) [Valganciclovir HCl], the relative cell viability is reported as 1.17 ± 0.18. In the case of O=C(c1ccc(OCCCc2c[nH]cn2)cc1)C1CC1 [Ciproxifan], the relative cell viability is reported as 1.13 ± 0.046. For CC[N+](CC)(CC)CCOc1cccc(OCC[N+](CC)(CC)CC)c1OCC[N+](CC)(CC)CC [Gallamine Triethiodide], the relative cell viability was 1.09 ± 0.032. C=C(c1ccc(C(=O)O)cc1)c1cc2c(cc1C)C(C)(C)CCC2(C)C [Bexarotene] showed a relative cell viability of 1.03 ± 0.17. CN(C)CCCCC(=O)Nc1ccc(NC(=S)NC(=O)c2ccc(C(C)(C)C)cc2)cc1 [Tenovin-6] showed a relative cell viability of 0.797 ± 0.064. Molecule Cn1cc(-c2ccc(S(=O)(=O)n3ccc(/C=C/C(=O)Nc4ccccc4N)c3)cc2)cn1 has a relative cell viability of 0.781 ± 0.023. Molecule CC/C(=C(\c1ccccc1)c1ccc(OCCN(C)C)cc1)c1ccccc1 [Tamoxifen Citrate] has a relative cell viability of 0.918 ± 0.037. With CCc1oc2ccccc2c1C(=O)c1cc(Br)c(O)c(Br)c1 [Benzbromarone] the relative cell viability was 1.251 ± 0.0033. With Cc1ccccc1N=Nc1ccc(NC(=O)c2ccnn2C)c(C)c1 the relative cell viability was 1.16 ± 0.076. CN(CCOc1ccc(CC2SC(=O)NC2=O)cc1)c1ccccn1 (centres undefined) [Rosiglitazone HCl] was tested, and the relative cell viability was 1.06 ± 0.062. Molecule CN(CCOc1ccc(CC2SC(=O)NC2=O)cc1)c1ccccn1 (centres undefined) [Rosiglitazone] has a relative cell viability of 1.04 ± 0.052. CN(CCOc1ccc(CC2SC(=O)NC2=O)cc1)c1ccccn1 (centres undefined) [Rosiglitazone maleate] was tested, and the relative cell viability was 1.12 ± 0.081. CC(N)C12CC3CC(CC(C3)C1)C2 (centres undefined) [Rimantadine] was tested, and the relative cell viability was 1.04 ± 0.034. For Fc1cc(-c2cccc3ncc(-c4cnn(C5CCNCC5)c4)nc23)cc(F)c1CN1CCOCC1, the relative cell viability was 1.01 ± 0.19. In the case of COc1ccc(C[C@@H]2c3cc(OC)c(OC)cc3CC[N@+]2(C)CCC(=O)OCCCCCOC(=O)CC[N@@+]2(C)CCc3cc(OC)c(OC)cc3[C@H]2Cc2ccc(OC)c(OC)c2)cc1OC [Cisatracurium Besylate], the relative cell viability is reported as 1.05 ± 0.058. For CCOC(=O)c1c(C)n(C)c2ccc(O)cc12 [Mecarbinate], the relative cell viability was 1.15 ± 0.042. Brc1c(NC2=NCCN2)ccc2nccnc12 [Brimonidine Tartrate] showed a relative cell viability of 1.06 ± 0.025. Work on CN(C)CCOC(=O)COc1ccc(Cl)cc1 [Meclofenoxate (Centrophenoxine) HCl] yielded a relative cell viability of 1.143 ± 0.0069. Work on N=C(N)N/N=C/c1c(Cl)cccc1Cl [Guanabenz Acetate] yielded a relative cell viability of 1.11 ± 0.09. Work on Cc1ccc2c(Cl)cc(Cl)c(O)c2n1 [Chlorquinaldol] yielded a relative cell viability of 0.605 ± 0.018. Work on NCc1c[nH]c(=S)n1[C@@H]1CCc2c(F)cc(F)cc2C1 [(R)-Nepicastat HCl] yielded a relative cell viability of 1.121 ± 0.0038. For O=C(/C=C/n1cnc(-c2cc(C(F)(F)F)cc(C(F)(F)F)c2)n1)N1CC(F)(F)C1, the relative cell viability was 0.355 ± 0.025. Work on CC(CCC(=O)NCCS(=O)(=O)O)C1CCC2C3C(O)CC4CC(O)CCC4(C)C3CCC12C (centres undefined) [Sodium Tauroursodeoxycholate (TUDC)] yielded a relative cell viability of 1.24 ± 0.12. In the case of Cc1cc(Nc2nc(N[C@@H](C)c3ncc(F)cn3)ncc2Cl)[nH]n1, the relative cell viability is reported as 0.892 ± 0.21. COC[C@H](NC(=O)c1cnc(C)s1)C(=O)N[C@@H](COC)C(=O)N[C@@H](Cc1ccccc1)C(=O)[C@@]1(C)CO1 [Oprozomib (ONX 0912)] was tested, and the relative cell viability was 0.182 ± 0.0023. CC[C@@H]1/C=C(\C)C[C@H](C)C[C@H](OC)[C@H]2O[C@@](O)(C(=O)C(=O)N3CCCC[C@H]3C(=O)O[C@H](/C(C)=C/[C@@H]3CC[C@H](Cl)[C@H](OC)C3)[C@H](C)[C@@H](O)CC1=O)[C@H](C)C[C@@H]2OC [Pimecrolimus] showed a relative cell viability of 1.144 ± 0.0096. O=C(O)CC1CC(c2ccccc2)=NO1 (centres undefined) was tested, and the relative cell viability was 1.13 ± 0.046. Cn1c([N+](=O)[O-])cnc1COC(N)=O [Ronidazole] showed a relative cell viability of 1.24 ± 0.13. Work on CCN(c1cc(-c2ccc(CN3CCOCC3)cc2)cc(C(=O)NCc2c(C)cc(C)[nH]c2=O)c1C)C1CCOCC1 yielded a relative cell viability of 0.974 ± 0.086. In the case of C=CC(=O)Nc1ccc2ncnc(Nc3ccc(OCc4cccc(F)c4)c(Cl)c3)c2c1, the relative cell viability is reported as 0.362 ± 0.036. In the case of CC1=C(CC(=O)O)c2cc(F)ccc2/C1=C\c1ccc([S+](C)[O-])cc1 (centres undefined) [Sulindac], the relative cell viability is reported as 0.999 ± 0.16. O=C(O)c1ccccc1C(=O)Nc1ccc(-c2ccccc2)cc1 [Kartogenin] showed a relative cell viability of 0.91 ± 0.047. Work on CC(=O)N1CCN(CCOc2ccc(C3CCN(C4=Nn5c(nnc5C(F)(F)F)CC4)CC3)cc2)CC1 yielded a relative cell viability of 0.928 ± 0.0099. With C=CC(=O)N1CCC[C@@H](n2nc(-c3ccc(Oc4ccccc4)cc3)c3c(N)ncnc32)C1 the relative cell viability was 0.459 ± 0.46. CCc1cccc2c3c([nH]c12)C(CC)(CC(=O)O)OCC3 (centres undefined) [Etodolac] showed a relative cell viability of 1.16 ± 0.012. With Cc1noc(NS(=O)(=O)c2ccc(N)cc2)c1C [Sulfisoxazole] the relative cell viability was 1.09 ± 0.011. CCC[C@H](NC(=O)[C@@H]1[C@H]2CCC[C@H]2CN1C(=O)[C@@H](NC(=O)[C@@H](NC(=O)c1cnccn1)C1CCCCC1)C(C)(C)C)C(=O)C(=O)NC1CC1 [Telaprevir (VX-950)] gave a relative cell viability of 0.934 ± 0.11. Work on C[C@@H]1CN(CC(=O)Nc2ccc3c(c2)Cc2cccc(-c4cc(=O)cc(N5CCOCC5)o4)c2S3)C[C@H](C)O1 yielded a relative cell viability of 1.26 ± 0.052. With OCC(O)C(O)CO (centres undefined) [Erythritol] the relative cell viability was 1.16 ± 0.22. With C[C@]12CC[C@@H]3c4ccc(O)cc4CC[C@H]3[C@@H]1C[C@@H](O)[C@@H]2O [Estriol] the relative cell viability was 1.01 ± 0.085. Cc1nc(N)sc1-c1ccnc(Nc2ccc(N3CCOCC3)cc2)n1 showed a relative cell viability of 0.9362 ± 0.0036. For CNC(=O)[C@H](Cc1ccccc1)NC(=O)[C@H](CC(C)C)[C@H](CSc1cccs1)C(=O)NO [Batimastat (BB-94)], the relative cell viability was 0.6892 ± 0.0037. For CCOC(=O)[C@H](CCc1ccccc1)N[C@@H](C)C(=O)N1CCC[C@H]1C(=O)O [Enalapril Maleate], the relative cell viability was 0.987 ± 0.1. With COc1nc(-c2ccc3c(c2)OCO3)n(-c2ccc(NC(=O)CSc3ccccc3)cc2)n1 [SecinH3] the relative cell viability was 1.25 ± 0.17. With O=C(Nc1ccc(-c2ccnc(Nc3ccc(N4CCOCC4)cc3)n2)cc1)C1CCCN1 (centres undefined) the relative cell viability was 1.23 ± 0.15. For COc1ccc2[nH]c([S+]([O-])Cc3ncc(C)c(OC)c3C)nc2c1 (centres undefined) [Omeprazole], the relative cell viability was 1.27 ± 0.18.
